Entries with a single value are a further part of the results. Each block holds one substance with its values, some of them ahead of it.
Assays:
[1] = molecular target: CgHspB1C145S, CgHspB1 mutant with Cys145 replaced by Ser (Chinese hamster); assay: AUC; sedimentation velocity, 40 °C, 0.05 mg/mL (table head prints 0.50 mg/mL), with DTT
[2] = molecular target: CgHspB1C145S, CgHspB1 mutant with Cys145 replaced by Ser (Chinese hamster); assay: AUC; sedimentation velocity, 40 °C, 0.05 mg/mL (table head prints 0.50 mg/mL), without DTT
[3] = molecular target: HspB1 from Chinese hamster, wild type (CgHspB1WT) (Chinese hamster); assay: AUC; sedimentation velocity, Rayleigh interference optics, 40,000 rpm, buffer containing 20% ethylene glycol; 40 °C, 0.5 mg/mL
[4] = molecular target: HspB1 from Chinese hamster, wild type (CgHspB1WT) (Chinese hamster); assay: AUC; sedimentation velocity, 40 °C, 0.05 mg/mL (table head prints 0.50 mg/mL), with DTT
[5] = molecular target: HspB1 from Chinese hamster, wild type (CgHspB1WT) (Chinese hamster); assay: AUC; sedimentation velocity, 40 °C, 0.05 mg/mL (table head prints 0.50 mg/mL), without DTT
[6] = molecular target: HspB1 from Chinese hamster, wild type (CgHspB1WT) (Chinese hamster); assay: AUC; sedimentation velocity, Rayleigh interference optics, 40,000 rpm, buffer containing 20% ethylene glycol; 4 °C, 0.1 mg/mL
[7] = molecular target: HspB1 from Chinese hamster, wild type (CgHspB1WT) (Chinese hamster); assay: AUC; sedimentation velocity, 40 °C, 0.5 mg/mL, with DTT
[8] = molecular target: HspB1 from Chinese hamster, wild type (CgHspB1WT) (Chinese hamster); assay: AUC; sedimentation velocity, Rayleigh interference optics, 40,000 rpm, buffer containing 20% ethylene glycol; 25 °C, 0.1 mg/mL
[9] = molecular target: HspB1 from Chinese hamster, wild type (CgHspB1WT) (Chinese hamster); assay: AUC; sedimentation velocity, Rayleigh interference optics, 40,000 rpm, buffer containing 20% ethylene glycol; 40 °C, 0.1 mg/mL
[10] = molecular target: HspB1 from Chinese hamster, wild type (CgHspB1WT) (Chinese hamster); assay: AUC; sedimentation velocity, 40 °C, 0.5 mg/mL, without DTT (series with and without DTT)

stoichiometry N ([1]; peak a): 3
stoichiometry N ([1]; peak b): 16
stoichiometry N ([1]; peak c): 22
stoichiometry N ([2]; peak a): 5
stoichiometry N ([2]; peak b): 22
Substance: CgHspB1C145S, CgHspB1 mutant with Cys145 replaced by Ser (natural protein)

stoichiometry N ([3]; peak b): 6
stoichiometry N ([3]; peak c): 14
stoichiometry N ([3]; peak d): 21
stoichiometry N ([3]; peak e): 24
stoichiometry N ([3]; peak f): 36
stoichiometry N ([4]; c(s20,w) peak a): 2
stoichiometry N ([4]; c(s20,w) peak b): 6
stoichiometry N ([4]; c(s20,w) peak c): 9
stoichiometry N ([4]; c(s20,w) peak d): 14
stoichiometry N ([4]; c(s20,w) peak e): 32
stoichiometry N ([5]; c(s20,w) peak a): 2
stoichiometry N ([5]; c(s20,w) peak b): 6
stoichiometry N ([5]; c(s20,w) peak c): 11
stoichiometry N ([5]; c(s20,w) peak d): 18
stoichiometry N ([5]; c(s20,w) peak e): 29
stoichiometry N ([6]; peak a): 7
stoichiometry N ([6]; peak b): 19
stoichiometry N ([6]; peak c): 28
stoichiometry N ([7]; c(s20,w) peak a): 2
stoichiometry N ([7]; c(s20,w) peak b): 7
stoichiometry N ([7]; c(s20,w) peak c): 13
stoichiometry N ([7]; c(s20,w) peak d): 18
stoichiometry N ([7]; c(s20,w) peak e): 22
stoichiometry N ([7]; c(s20,w) peak f): 30
stoichiometry N ([8]; peak a): 6
stoichiometry N ([8]; peak b): 13
stoichiometry N ([8]; peak c): 19
stoichiometry N ([9]; peak a): 2
stoichiometry N ([9]; peak b): 6
stoichiometry N ([9]; peak c): 12
stoichiometry N ([9]; peak d): 17
stoichiometry N ([9]; peak e): 26
stoichiometry N ([9]; peak f): 34
stoichiometry N ([10]; c(s20,w) peak a): 2
stoichiometry N ([10]; c(s20,w) peak b): 7
stoichiometry N ([10]; c(s20,w) peak c): 12
stoichiometry N ([10]; c(s20,w) peak d): 20
stoichiometry N ([10]; c(s20,w) peak e): 26
stoichiometry N ([10]; c(s20,w) peak f): 36
Substance: HspB1 from Chinese hamster, wild type (CgHspB1WT) (natural protein)

— publication PMC8509488
